“And” between values parts separate entries of the source, which are not always exact repeats. Equal entries are not always repeated. Screen size: about 420,000 compounds; about 64,000 (15%) were called active. Inconclusive results, whose numbers are uncertain, are shown with a selection of clear calls. Calls follow the shape of the dose curve; as a rule, active = well fitted inhibition curve with a large enough effect; inconclusive = small, poorly fitted or top-dose-only effect; inactive = flat fitted curve, though single readings scatter. No potency is given beside an inconclusive call; the fits are too rough.
Test: qHTS for Inhibitors of human tyrosyl-DNA phosphodiesterase 1 (TDP1): qHTS in cells in absence of CPT; also: nearly all actives have a fitted effect of over 55% in size
Details: DT40 Tdp1-/- hTDP1 cells, no CPT, ATP luminescence, 48 h; activity change, negative = growth inhibition: at 46.2 µM (top of the series) unless noted
In short: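 Chicken DT40 Tdp1-/- cells stably complemented with human TDP1 were seeded at 400 cells/well with DMSO in place of 20 nM camptothecin. After compound pinning, cells grew at least 48 hr at 37 °C; viability read by CellTiter-Glo luminescence.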
With `Cc1noc(C)c1C(=O)N1CCC2(CCCN(C(=O)Nc3cccc(C#N)c3)C2)CC1` the “activity change, negative = growth inhibition” value was inactive: -17.9%. For `Cc1ccc(S(=O)(=O)Nc2cc3c(C(=O)Nc4ccccc4)c(C)oc3c3ccccc23)cc1`, the Potency was inconclusive [inhibitor, single point]. With `COc1cccc(-c2nnc(SCC(=O)Nc3ccc(S(N)(=O)=O)cc3)n2C)c1` the activity change, negative = growth inhibition was inconclusive: -32.9% [inhibitor]. With `COc1ccc(-n2c(=S)[nH]c3cc(C(=O)NCc4ccc(F)cc4)ccc3c2=O)c(OC)c1` the Potency was inconclusive [inhibitor, partial curve]. For `Cc1ccccc1OCC(=O)OCC(=O)NCc1ccco1`, the “activity change, negative = growth inhibition” value was inactive: -8.6%. In the case of `COc1ccc(CCN(C)CCCC(C#N)(c2cc(OC)c(OC)c(OC)c2)C(C)C)cc1OC` (configuration not stated), the Potency is reported as active: 24 µM and active: 16.8 µM and active: 20.6 µM. For `CC(C)(C)OC(=O)N[C@H](C(=O)OC(C)(C)C)c1ccc(Br)cc1`, the Potency was inconclusive [inhibitor, single point]. In the case of `COc1ccc(N=Cc2oc3ccc4ccccc4c3c2O)cc1`, the “activity change, negative = growth inhibition” value is reported as inactive: -15.5%. With `COc1cc(OC)cc(C(=O)N[C@H](C(=O)Nc2c(C)n(C)n(-c3ccccc3)c2=O)C(C)C)c1` the Potency was inconclusive [inhibitor, single point]. For `COc1ccc(Cl)cc1S(=O)(=O)N1CCC(C(=O)NC2CCCC2)CC1`, the “activity change, negative = growth inhibition” value was inactive: 3.62%. With `O=C(Nc1ccc(F)cc1)c1ccc(S(=O)(=O)NCc2cccnc2)cc1` the Potency was inconclusive [inhibitor, partial curve]. In the case of `CCc1nc(Cl)c(C#N)c2c1CCCC2`, the activity change, negative = growth inhibition is reported as inconclusive: -32.3% [inhibitor]. For `COc1ccc(-c2csc3nc(-c4ccc(C)cc4)oc(=O)c23)cc1OC`, the Potency was active: 10.3 µM. For `O=c1c2sc3ccccc3c2n(Cc2ccc(Cl)cc2)c(=O)n1Cc1ccco1`, the Potency was active: 8.2 µM. In the case of `Cc1ccc(NC(=O)CCc2nc3cccnc3n2-c2ccccc2)cc1Cl`, the Potency is reported as active: 16.4 µM. For `CC(=O)N1C(=O)C(=C2C=C(C)OC(C)=C2)c2ccccc21`, the Potency was inconclusive [inhibitor, single point]. With `O=C(Nc1ccc(F)cc1Cl)c1cnc(N2CCOCC2)c2ccccc12` the Potency was inconclusive [inhibitor, single point]. In the case of `Fc1ccc(-c2cc3nc(-c4ccccc4)cc(N4CCN(CCN5CCOCC5)CC4)n3n2)cc1`, the Potency is reported as active: 7.31 µM. In the case of `CCOC(=O)N1CCN(C(=O)CN(C2CCCCC2)S(=O)(=O)c2c(C)cc(C)cc2C)CC1`, the Potency is reported as inconclusive [inhibitor, partial curve]. For `COc1ccc2cc(C3NC(=O)c4ccccc4N3)c(Cl)nc2c1` (configuration not stated), the Potency was inconclusive [inhibitor, partial curve]. For `COc1cccc(Cn2c(-c3cccs3)noc2=O)c1`, the activity change, negative = growth inhibition was inconclusive: -14.4% [inhibitor]. With `Cc1ccc(CN2C(=O)c3ccccc3NC2c2cc(Br)ccc2O)cc1` (configuration not stated) the Potency was inconclusive [inhibitor, single point]. For `Cc1ccc(CN2CCN(c3cccc4[nH]ccc34)CC2)cc1`, the Potency was inconclusive [inhibitor, single point]. In the case of `COc1ccc2nc(SCC(=O)NC(C)c3ccccc3)[nH]c2c1` (configuration not stated), the Potency is reported as inconclusive [inhibitor, single point]. With `S=C(NCCSCc1c(Cl)cccc1Cl)Nc1ccccc1` the Potency was inconclusive [inhibitor, single point]. With `CCn1nc(C(=O)N2CCN(Cc3nc4ccccc4s3)CC2)c2ccccc2c1=O` the Potency was inconclusive [inhibitor, partial curve, poor fit]. For `Cc1cc(C)nc(N2CCCC(C(=O)Nc3nc4ccc(S(C)(=O)=O)cc4s3)C2)n1` (configuration not stated), the Potency was inconclusive [inhibitor, partial curve]. For `COc1ccc(NC(=O)c2sc3ncn(CC(=O)N4CCN(c5ccccn5)CC4)c(=O)c3c2C)c(OC)c1`, the “activity change, negative = growth inhibition” value was inactive: 8.28%. In the case of `COc1cccc(C(=O)NNC(=O)c2cccnc2)c1`, the “activity change, negative = growth inhibition” value is reported as inactive: 13.1%. For `COc1ccc(-n2nc(C(=O)NCC(=O)N3CCCCCC3)c3ccccc3c2=O)cc1OC`, the Potency was inconclusive [inhibitor, partial curve]. With `CCCCCCc1nc(C(N)=O)c2[nH]c(=O)n(-c3ccc(OC)cc3OC)c2n1` the Potency was inconclusive [inhibitor, single point]. In the case of `CCOc1c(OC)cccc1C1CC(=O)Nc2cc(OC)c(OC)cc21` (configuration not stated), the Potency is reported as active: 18.4 µM. With `COC(=O)c1sccc1S(=O)(=O)NC(C)c1cnn(-c2ccc(OC)cc2)c1C` (configuration not stated) the Potency was inconclusive [inhibitor, single point]. In the case of `CC1(C)CCC[C@]2(C)C3CC(=O)O[C@@]3(C)CC[C@H]12` (some centres not stated), the Potency is reported as inconclusive [inhibitor, partial curve, poor fit]. With `Cc1cc(C)nc(NC(=O)/C=C/c2ccc(Cl)cc2Cl)c1` the Potency was active: 13 µM. For `CCc1nc2ccc(C(=O)Nc3cccc(OC)c3)cn2c1N(CC)CCOC`, the Potency was active: 18.4 µM. In the case of `O=C1CC(SC(=S)C2CCCC2=O)C(=O)N1` (configuration not stated), the Potency is reported as inconclusive [inhibitor, partial curve]. With `COc1ccc(CNC(=O)CC2Oc3ccc(C)cc3NC2=O)cc1` (configuration not stated) the “activity change, negative = growth inhibition” value was inactive: -9.89%. For `Cc1cc(=O)oc2cc(OCC3CC(c4ccc(Cl)cc4)=NO3)ccc12` (configuration not stated), the Potency was inconclusive [inhibitor, single point]. In the case of `O=c1ccnc(SCCc2ccc([N+](=O)[O-])cc2)[nH]1`, the Potency is reported as inconclusive [inhibitor, full curve]. For `Cc1nc2cc(-c3cccc(F)c3)nn2c(N2CCN(C(=O)c3ccco3)CC2)c1C`, the Potency was active: 14.6 µM. With `CCN(C(=O)COc1cc(OC)ccc1C(C)=O)C1CCS(=O)(=O)C1` (configuration not stated) the “activity change, negative = growth inhibition” value was inactive: -2.41%. For `O=C(O)COc1ccccc1/C=N/NC(=O)Cc1ccccc1`, the “activity change, negative = growth inhibition” value was inactive: 17.1%. For `O=C(Nc1ccccc1C(F)(F)F)c1cc2ncc(CCCl)cn2n1`, the “activity change, negative = growth inhibition” value was inactive: 3.38%. In the case of `O=C(Nc1ccc(Cl)cc1)Nc1nnc(CSc2ccc(Cl)cc2)s1`, the Potency is reported as active: 2.59 µM. In the case of `COc1ccc(CC(=O)c2ccc(OC)c(OC)c2C)cc1OC`, the Potency is reported as inconclusive [inhibitor, single point]. For `COC(=O)c1cc2oc3ccccc3c2n1CC(=O)Nc1ccc(F)c(Cl)c1`, the “activity change, negative = growth inhibition” value was inactive: -26.3%. With `CC(C)(C)N(CC#CCC1(O)c2ccccc2-c2ccccc21)CCO` the “activity change, negative = growth inhibition” value was inactive: -21.2%. For `Cc1cccc(Nc2nnc(SCC(=O)c3c(N)n(C4CC4)c(=O)[nH]c3=O)s2)c1C`, the Potency was active: 11.6 µM. In the case of `N#CC1=C(N)Oc2cc(N)ccc2C1c1ccc(F)cc1` (configuration not stated), the Potency is reported as inconclusive [inhibitor, partial curve]. With `CC(=O)OC1CC2(C)C(CCC2(O)C(C)=O)C2CCC3C(Cl)C(=O)CCC3(C)C12` (configuration not stated) the “activity change, negative = growth inhibition” value was inactive: -27.6%. In the case of `O=C(CNc1ccccc1F)Nc1cc(S(=O)(=O)N2CCCCC2)ccc1Cl`, the “activity change, negative = growth inhibition” value is reported as inactive: -27.2%. For `Cc1ccc(S(=O)(=O)N2CCc3cc(C(=O)Nc4c(C)cccc4C(C)C)ccc32)cc1`, the Potency was inconclusive [inhibitor, partial curve]. In the case of `O=C(NCc1cccnc1)c1cc(S(=O)(=O)N2CCOCC2)c(Cl)cc1Cl`, the “activity change, negative = growth inhibition” value is reported as inactive: -21.6%. In the case of `CCOC(=O)/C(C(=Nc1ccccc1)Nc1ccccc1)=C(\C)O`, the Potency is reported as inconclusive [inhibitor, single point]. With `CCCCOc1ccccc1P(=O)(O)CP(=O)(c1ccccc1)c1ccccc1` the Potency was inconclusive [inhibitor, partial curve]. For `Cc1cccc(Cn2c(CN3CCCC(C)C3)nc3c2c(=O)n(C)c(=O)n3C)c1` (configuration not stated), the Potency was inconclusive [inhibitor, single point]. With `CNc1nc(-c2ccc3c(c2)CCN3C(=O)c2ccccc2C)cs1` the Potency was active: 16.4 µM. For `COCC(=O)N1CCC2(CC1)CCN(C(=O)Nc1cccc(C#N)c1)CC2`, the “activity change, negative = growth inhibition” value was inactive: -11.1%. With `C/C(=N\NC(=O)C1(C)CC1(Br)Br)c1ccc(C)cc1C` (configuration not stated) the “activity change, negative = growth inhibition” value was inactive: -28.5%. With `COc1ccc(CN2Cc3ccccc3OC(c3ccccc3OC)C2)c(O)c1` (configuration not stated) the Potency was inconclusive [inhibitor, single point]. With `CCOC(=O)c1c(-n2c(C)cc(C=O)c2C)sc2c1CCCC2` the Potency was inconclusive [inhibitor, single point]. For `C/C(Cn1cnc([N+](=O)[O-])n1)=N\NC(=O)c1ccc(Br)cc1`, the “activity change, negative = growth inhibition” value was inactive: -0.772%. With `COc1ccc([C@H]2N[C@]3(CCCN(CC4CCCCC4)C3=O)[C@H]3C(=O)N(C)C(=O)[C@@H]23)cc1` the Potency was inconclusive [inhibitor, single point]. In the case of `O=C(CCCCl)NC(=S)Nc1ccc(N2CCOCC2)cc1`, the “activity change, negative = growth inhibition” value is reported as inactive: 1.4%. With `O=C(CC(c1ccccc1)c1ccccc1O)NCCc1ccccc1` (configuration not stated) the Potency was inconclusive [inhibitor, single point]. With `CCOc1ccc(CCNC(=O)c2nn(C)c3c2CSc2ccc(C)cc2-3)cc1OCC` the Potency was active: 13 µM. For `COCCCNC(=O)c1ccc(-n2c(-c3ccccc3)cc3c2CCCCC3)cc1`, the Potency was inconclusive [inhibitor, single point]. For `Cc1cccc(NC(=O)NNC(=O)c2cc(-c3ccccc3Cl)nc3ccccc23)c1`, the Potency was inconclusive [inhibitor, single point]. In the case of `C/C(=N/Nc1nc(C)cc(C)n1)c1ccc(Br)cc1`, the Potency is reported as inconclusive [inhibitor, single point]. With `O=[N+]([O-])c1ccccc1C1Nc2cccc3cccc(c23)N1` the Potency was inconclusive [inhibitor, partial curve]. With `O=C(c1nnc(-c2ccncc2)o1)c1ccccc1Cl` the “activity change, negative = growth inhibition” value was inactive: 2.45%.
% is scaled to controls: 0 for no effect and ±100 for the full control effect; potency is read from the fitted curve at half-maximal effect; tags tell the direction and shape of the fitted curve.
